The supplement of paper PMC11417369
± gives the standard deviation of the averaged measurements. This is one part of the list.

What follows are sequences tested on PfAP2-I AP2 domain 3 (GST-tagged) (assay: gcPBM binding intensity (ln(normalized median fluorescence intensity)); higher = stronger DNA binding).
Method in brief: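 Binding intensity is defined as the maximum Masliner-normalised natural-log median intensity across replicate spots for either probe orientation. It was measured on an Agilent 4 × 180k array of primer-extended double-stranded 36-bp intergenic genomic probes and negative controls, to which GST-tagged P. falciparum DNA-binding domains made in E. coli were applied for 1 h in 1× PBS with 1% milk, 0.2 mg/ml BSA, 0.5% salmon testes DNA and 0.03% Triton X-100. Detection was by Alexa488 anti-GST antibody and scanning at 488 nm.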

Row | Sequence | gcPBM binding intensity (ln)
1 | GAATTTTAAATAAACATATAAACAGAAAAAAAAAAA [TGCATGCA_negctrl_site149] | 8.14 ± 0.76
2 | GTTCGAAGTATAATTTGTACATATAAAATGGTTCCC [XGTACX_site382] | 7.64 ± 0.58
3 | ATATGTATTTATATATGTTTGAATTTTTTTTTTTTT [CACACA_negctrl_site5] | 7.34 ± 0.31
4 | GAATAAATAAATAAATGTACATATATATTTATTTAT [XGTACX_site243] | 7.55 ± 0.35
5 | ATTTGATCAACAAAACGTACACATATTTTCATGTGT [XGTACX_site447] | 7.68 ± 0.45
6 | TATCTGTATTTATATACACACATATTCTTTTTACAC [CACACA_site4798] | 7.96 ± 0.52
7 | AAAATCACAAAACACACACACACAAAAAAAAAAAAA [CACACA_site1443] | 8.01 ± 0.62
8 | CACATATAGTTATATGCACACATCTTACACATATAT [CACACA_site3692] | 9.35 ± 0.26
9 | CATGGGCAAATATTCTCACACATAAACATAAACATA [CACACA_site4597] | 7.9 ± 0.59
10 | GTTTGAAGAACTATAAATGTATAAATAAAAGTTTAG [TGCATGCA_negctrl_site222] | 7.58 ± 0.59
11 | AAAAAAGTAAAAAAAGCACACACGAAAAAAAATAAA [CACACA_site2233] | 8.04 ± 0.67
12 | ATGGTGCAACATTATGCACACCGTTAAATAACTAAT [CACACA_site9280] | 11.5 ± 0.7
13 | ATATAGTAAAATTATACACACATGAATTTTCCCATG [CACACA_site1770] | 7.68 ± 0.87
14 | GGGAATTATGAAAAAAGTACAGAACAAAAGTAAAAG [XGTACX_site2861] | 8.27 ± 0.37
15 | CATATATATATATATACACACACACCGTCCGTGTTA [CACACA_site8975] | 8.18 ± 0.52
16 | ATTACATGATATATCACACACACATATAAATATATA [CACACA_site2830] | 8.19 ± 0.27
17 | TACAAAAATGAAAAAAGTACATATCATTTAATATAA [XGTACX_site8066] | 7.63 ± 0.55
18 | TTTTTTTTTTTTTTTTGTACTCATAAAAATATATTA [XGTACX_site3458] | 8.19 ± 0.79
19 | AAAGTACAATCATAATCACACGTGTCTATTATATAC [CACACA_site8103] | 7.61 ± 0.51
20 | TATATTTATTTATATGTATGCATGTCTGTATATGCT [TGCATGCA_site339] | 7.54 ± 0.62
21 | CAAAGATAAAATGATGCACACAAAAGGGTGTAATAT [CACACA_site8499] | 8.97 ± 0.32
22 | ACATGGTTTACACGTGCATGTGGATGACTGGACATT [TGCATGCA_site640] | 8.29 ± 0.91
23 | TGAGAAAATTAAAAGGTGCTCAGAAATTTTATATTA [GTGCAC_site9954] | 8.6 ± 0.3

Row | Sequence | gcPBM binding intensity (ln)
24 | TTTTCTTTTAATATTTTTAATAATTATATTTTGAAA [XGTACX_negctrl_site495] | 7.46 ± 0.66
25 | AATACGACAAACAAATGTACAAATAAATATTCGCGT [XGTACX_site6427] | 7.83 ± 0.64
26 | AAAAATGTAAAGTGCGTGCACAAAATATTTGGAAAA | 10.3 ± 0.26
27 | AAATTACTAATGTGCACACATACTAACGTTTAAATA [CACACA_site3572] | 10.02 ± 0.078
28 | TAAAATTTAAAATATACACACAAAAAGTTATTACAA [CACACA_site4080] | 7.58 ± 0.57
29 | AAATTATTATGAAATGGAAAATGCATAAATTGTTTT [XGTACX_negctrl_site206] | 7.82 ± 0.79
30 | ATTAAATAATAATAATGTACGTATTATATTAATACA [XGTACX_site5439] | 7.67 ± 0.15
31 | CTCTTTAAAAATATGGGTACAAAAAAAAAAAAAATA [XGTACX_site6185] | 7.9 ± 0.28
32 | ATTCTTTACTCATAAAATTATATTATATAAACTTTT [XGTACX_negctrl_site554] | 7.88 ± 0.57
33 | AGGCCCTATGTTGTTACACACATAGAATGATACATC [CACACA_site1266] | 7.67 ± 0.7
34 | AAAACAGTGACAACTCGTACTTATATTTTTTTTTGT [XGTACX_site4968] | 7.61 ± 0.69
35 | AACTTATTAAGCCCTCCACATTTCTCTACTACAACT [CACACA_negctrl_site1552] | 8.12 ± 0.56
36 | TCTATTTTTCTAATTTGTACATAGCTTTGAGTTAGT [XGTACX_site8977] | 7.78 ± 0.64
37 | AACTTCTTTTTTATAACACACAAAATATATATACAA [CACACA_site282] | 8.15 ± 0.59
38 | AGATAAAATATATACACACACATAAATACGTACAAA [CACACA_site1086] | 8.39 ± 0.028
39 | AAAAGAATGAAACATAATAAATTACATTAAAATAAT [CACACA_negctrl_site897] | 7.72 ± 0.51
40 | GGCATACACAGACACACACACACACCCACATATATA [CACACA_site591] | 8.29 ± 0.4
41 | TAATTATCACATTGCACACACATTTCCTTTTACATT [CACACA_site3443] | 8.79 ± 0.45
42 | AATAAATAAATAAGTACACACATATATATATATATA [CACACA_site284] | 9.27 ± 0.41
43 | ATTTTTTTATTTTGTGCACACACATAAAAATATATA [CACACA_site762] | 11.1 ± 0.27
44 | GATTTTCATATTTTTTGTACTTACATTTTTCTATAC [XGTACX_site6002] | 8.18 ± 0.53
45 | ATAAAATCTTAATCAACAAACAAACAAAAAAAAAAT [CACACA_negctrl_site1161] | 7.72 ± 0.61
46 | TATGTGATATATTTATCACACATTATATATATATAT [CACACA_site5103] | 9.05 ± 0.69

Row | Sequence | gcPBM binding intensity (ln)
47 | TACATTTTTATTTTTACACACATATTTATTTATATA [CACACA_site6609] | 7.91 ± 0.45
48 | TATGATGATGAATAACGTACAAAAAAATTAATCACC [XGTACX_site6794] | 8.16 ± 0.49
49 | ATTCATTTTAATATGGGTACATAAAAATAAAAAGAA [XGTACX_site2801] | 8.09 ± 0.39
50 | AATATTTAATTCAACACACATACATATTTATTAAAA [CACACA_site2342] | 7.95 ± 0.24
51 | TAATATGAAAAGTGTACACACGCACAGACAAAAAAA [CACACA_site5594] | 8.43 ± 0.56
52 | GCATAAATCAGACACACACACATATATAAATATGTA [CACACA_site7187] | 7.78 ± 0.33
53 | TGTTTATTTTTTTTATGTACTTATTTTTTATTGCAT [XGTACX_site719] | 8.21 ± 0.18
54 | ATAAATATATGGTTTCATTATATTAAATTCAATTTA [CACACA_negctrl_site213] | 7.28 ± 0.54
55 | AGTATAGTTATAAATTGTACATATTATTTATTTTAT [XGTACX_site949] | 7.64 ± 0.47
56 | TAAGTCGCCAAAAGGTGTACACATAATGCATTATCA [XGTACX_site8852] | 8.83 ± 0.48
57 | ATGGGGAATAATGAATGTACACAAATAAAAAGTTGG [XGTACX_site4015] | 8.24 ± 0.63
58 | TAATATCATTTAGACACACACTCTTACAATCTGTAA [CACACA_site2590] | 7.51 ± 0.64
59 | AATCATTTATGGAAAGCATGCTAAATTAGAGTATAC [TGCATGCA_site172] | 7.82 ± 0.88
60 | ATCTAAACCTTTTGAGCACACATATATATATATATA [CACACA_site8526] | 9.51 ± 0.49
61 | TAAAAATAAAAATAACGTACATACATACTTATATAT [XGTACX_site3745] | 7.5 ± 0.16
62 | TAATTTTTTTAAAACACACAAATATGTAAATATGTA [CACACA_site7769] | 7.43 ± 0.45
63 | ATTTTTGTGACTAAGACATGCATAAGAGTAAAGAAA [TGCATGCA_site619] | 8.46 ± 0.75
64 | ACATATATTATATAACGTACATAACACTATTTCCTT [XGTACX_site6938] | 7.95 ± 0.54
65 | TTTTTTTTTTGTAATTGTACTTTTTTAATACTTCTA [XGTACX_site4195] | 7.74 ± 0.82
66 | TATATATATATATTCACACATAAATATATGCACCCA [CACACA_site4263] | 11.1 ± 0.68
67 | TATACATATATATACACACACATATATATATATATA [CACACA_site4] | 9.26 ± 0.52
68 | TCATACCTACATAAAAAAAGGGAAACAAAATGTCAT [XGTACX_negctrl_site34] | 7.57 ± 0.79
69 | AATAAATATAAATACACACCCATATATATATATATA [CACACA_site5436] | 9.46 ± 0.56

Row | Sequence | gcPBM binding intensity (ln)
70 | ACCAATAAATATTTGGTGCATACATATATATATATA | 10.31 ± 0.064
71 | TTAAAAAAAAAAAAAAGTACACACTTATAAAATATT [XGTACX_site1630] | 8.055 ± 0.021
72 | CTCCACAAACAAATCGCACACCCAACCCAACATATA [CACACA_site2650] | 8.41 ± 0.18
73 | TATTATAATGACTATAGTACATAATATTATTTATAT [XGTACX_site1977] | 7.67 ± 0.34
74 | ATAGAACTGAATAAATCTATAAATAAATATATATAT [GTGCAC_negctrl_site604] | 8.835 ± 0.007
75 | TTTTTTAAAACTTCAAAAAGAGCACTTGAATTTTTT [GTGCAC_negctrl_site455] | 7.9 ± 0.37
76 | ACATATACATTTATATGTACTCATTTATCTTATGTA [XGTACX_site6594] | 7.71 ± 0.42
77 | AAATATTACATACACGCACACATTAATATATTTAAA [CACACA_site2603] | 8.32 ± 0.38
78 | AACTAAATTTATAATTGTACATTAAAATATGTATTA [XGTACX_site479] | 7.59 ± 0.4
79 | ACCTACACAAGCATTAAACACACAAAAGGGATACTT [CACACA_site8273] | 7.97 ± 0.69
80 | ACCTAATTTTTATATTGTACATAATATAATATATAT [XGTACX_site1715] | 8 ± 0.42
81 | ACAAGAACAGAACGTACACACACATATATATATATA [CACACA_site9143] | 9.34 ± 0.35
82 | TTTTACATATATATATGTACGAAAATGAAAAGGTCA [XGTACX_site5576] | 8.43 ± 0.63
83 | TATTATAATTTTATATGTACACATATATAAATATAT [XGTACX_site4054] | 7.61 ± 0.28
84 | AAAGTTACATTCGACACACACATAACAACTAAATAA [CACACA_site3419] | 7.87 ± 0.44
85 | TTTATTTATTAATACACACACACACCCCCACAAAAT [CACACA_site240] | 9.96 ± 0.2
86 | TACATAAACATTTATACACACATTAGATATACATAT [CACACA_site6329] | 7.79 ± 0.28
87 | CTAAATAAAGTTAACACACACATAATATTTATATGT [CACACA_site6368] | 7.65 ± 0.41
88 | TCAAAGAGTAGAAAGGTGCTTATGAACGAGATAATT | 8.93 ± 0.35
89 | TTTTTTAAAAAACAAACACACACGTAGAAAAAAAAA [CACACA_site826] | 8.29 ± 0.67
